Results are given in words; binding and its absence hold for the method and conditions named.
Biological target: Rdj2 (also called DnaJA2), transfected (UniProt O35824)
Experiment: SDS-resistant dimer on SDS-PAGE with Western blot; lysates of transiently transfected CAD cells, control or treated 24 h with quercetin (up to 200 µM), EGCG or other agents; 30-40 µg protein in SDS sample buffer at 37°C or 80°C; dimer at ∼72 kDa

Sequences of proteins named here, by UniProt entry; tags and fusion partners are left off.
UniProt O35824: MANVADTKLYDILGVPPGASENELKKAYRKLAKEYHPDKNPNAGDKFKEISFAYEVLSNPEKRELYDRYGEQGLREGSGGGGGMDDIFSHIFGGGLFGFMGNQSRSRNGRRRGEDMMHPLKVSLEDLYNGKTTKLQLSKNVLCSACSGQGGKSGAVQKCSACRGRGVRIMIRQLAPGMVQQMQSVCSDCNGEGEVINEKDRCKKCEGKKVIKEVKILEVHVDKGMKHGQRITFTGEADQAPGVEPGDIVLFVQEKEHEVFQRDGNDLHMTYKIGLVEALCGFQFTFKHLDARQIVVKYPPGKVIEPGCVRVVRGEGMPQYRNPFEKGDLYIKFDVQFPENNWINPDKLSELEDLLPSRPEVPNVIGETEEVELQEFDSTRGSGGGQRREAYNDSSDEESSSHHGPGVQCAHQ

- binding: no binding
Substance: Rdj2 (also called DnaJA2), transfected (from UniProt O35824 1-412)

From PMC2883571, “Quercetin Targets Cysteine String Protein (CSPα) and Impairs Synaptic Transmission” (PLoS ONE, 2010)
